In patent publication US7834164B2 (priority 2006, dated 2010):
Like-named read-outs stand apart in the source and are kept apart here. For some of these results: Part of at least one peptide drawing is inferred or uncertain, most often the ends. Some entries share one result that the patent states for a list of compounds. Bridge positions count the residues as written; N and C are the ends. Peptide text beside a SMILES is read from it.

Key:
[1] = tested on: IFN-g production in human whole blood; assay type: cell-based
[2] = tested on: IL-2 production in human whole blood; assay type: cell-based
[3] = tested on: AT-EAE model of multiple sclerosis; design: species or system Lewis rats; details: rat, in vivo, sc
[4] = read-out: Analogue Activity IC50, WB/IFNg
[5] = read-out: Analogue Activity IC50, WB/IL-2

SMILES	IC50 ([1]; read-out: WB/IFNg (IC50))	IC50 ([2]; read-out: WB/IL-2 (IC50))	IC50 [1, 4]	IC50 [2, 5]	EAE score by the end of the study [3]
CC[C@H](C)[C@@H]1NC(=O)[C@H](CCCCN)NC(=O)[C@@H](NC(=O)[C@H](CCCCN)NC(=O)[C@@H](NC(=O)[C@H](CC(N)=O)NC(=O)[C@@H](NC(=O)[C@@H](NC(=O)[C@@H](NC(=O)CN)C(C)C)[C@@H](C)CC)[C@@H](C)CC)C(C)C)CSSC[C@@H]2NC(=O)[C@H](CCCCN)NC(=O)CNC(=O)[C@H](Cc3ccccc3)NC(=O)[C@H](CCCNC(=N)N)NC(=O)[C@H](CCSC)NC(=O)CNC(=O)[C@H](C)NC(=O)[C@H](CC(=O)O)NC(=O)[C@H](CCCCN)NC(=O)[C@@H]3CSSC[C@@H](C(=O)N[C@H](C(=O)N4CCC[C@H]4C(=O)N[C@@H](CCCCN)C(=O)O)[C@@H](C)O)NC(=O)[C@H](Cc4c[nH]cn4)NC(=O)[C@H](CSSC[C@H](NC(=O)[C@H](CCC(N)=O)NC(=O)[C@H](C)NC(=O)[C@H](CO)NC1=O)C(=O)N[C@@H](CC(C)C)C(=O)N[C@@H](CCCCN)C(=O)N1CCC[C@H]1C(=O)N3)NC(=O)[C@H](CCCCN)NC(=O)CNC(=O)[C@H](CC(N)=O)NC(=O)[C@H](CCSC)NC2=O [R12A, E16K, K20D] (H-GVIINVKCKISAQCLKPCKDAGMRFGKCMNGKCHCTPK-OH; disulfide 8-28, 14-33, 18-35)	0.092 nM	0.041 nM			
CC[C@H](C)[C@@H]1NC(=O)[C@H](CCCCN)NC(=O)[C@@H](NC(=O)[C@H](CCCCN)NC(=O)[C@@H](NC(=O)[C@H](CC(N)=O)NC(=O)[C@@H](NC(=O)[C@@H](NC(=O)[C@@H](NC(=O)CN)C(C)C)[C@@H](C)CC)[C@@H](C)CC)C(C)C)CSSC[C@@H]2NC(=O)[C@H](CCCCN)NC(=O)CNC(=O)[C@H](Cc3ccccc3)NC(=O)[C@H](CCC(=O)O)NC(=O)[C@H](CCSC)NC(=O)CNC(=O)[C@H](C)NC(=O)[C@H](CCCCN)NC(=O)[C@H](CCCCN)NC(=O)[C@@H]3CSSC[C@@H](C(=O)N[C@H](C(=O)N4CCC[C@H]4C(=O)N[C@@H](CCCCN)C(=O)O)[C@@H](C)O)NC(=O)[C@H](Cc4c[nH]cn4)NC(=O)[C@H](CSSC[C@H](NC(=O)[C@H](CCC(N)=O)NC(=O)[C@H](CCCNC(=N)N)NC(=O)[C@H](CO)NC1=O)C(=O)N[C@@H](CC(C)C)C(=O)N[C@@H](CCC(=O)O)C(=O)N1CCC[C@H]1C(=O)N3)NC(=O)[C@H](CCCCN)NC(=O)CNC(=O)[C@H](CC(N)=O)NC(=O)[C@H](CCSC)NC2=O [R24E] (H-GVIINVKCKISRQCLEPCKKAGMEFGKCMNGKCHCTPK-OH; disulfide 8-28, 14-33, 18-35)			9.54 nM	7.16 nM	
CC[C@H](C)[C@@H]1NC(=O)[C@@H](NC(=O)[C@H](CO)NC(=O)[C@@H](N)CCCNC(=N)N)CSSC[C@@H](C(=O)O)NC(=O)[C@H]([C@@H](C)O)NC(=O)CNC(=O)[C@@H]2CSSC[C@@H]3NC(=O)[C@H](CCC(N)=O)NC(=O)[C@H](Cc4ccccc4)NC(=O)[C@H](C)NC(=O)[C@H]([C@@H](C)O)NC(=O)[C@H](CSSC[C@H](NC(=O)[C@H](Cc4ccccc4)NC(=O)[C@H](CO)NC(=O)[C@H](CC(C)C)NC(=O)[C@H](CCCNC(=N)N)NC(=O)[C@H](Cc4ccc(O)cc4)NC(=O)[C@H](CCCCN)NC(=O)[C@H](CCSC)NC(=O)[C@H](CO)NC(=O)[C@H](Cc4c[nH]cn4)NC(=O)[C@H](CCCCN)NC3=O)C(=O)N[C@@H](CCCNC(=N)N)C(=O)N[C@@H](CCCCN)C(=O)N[C@@H]([C@@H](C)O)C(=O)N2)NC(=O)[C@H](CCCNC(=N)N)NC(=O)[C@H](CO)NC(=O)[C@H](CCCCN)NC(=O)[C@@H]2CCCN2C(=O)[C@H]([C@@H](C)CC)NC(=O)[C@H]([C@@H](C)O)NC(=O)[C@H](CC(=O)O)NC1=O [ShK]					≥ 5.5
CC[C@H](C)[C@@H]1NC(=O)[C@H](CCCCN)NC(=O)[C@@H](NC(=O)[C@H](CCCCN)NC(=O)[C@@H](NC(=O)[C@H](CC(N)=O)NC(=O)[C@@H](NC(=O)[C@@H](NC(=O)[C@@H](NC(=O)CN)C(C)C)[C@@H](C)CC)[C@@H](C)CC)C(C)C)CSSC[C@@H]2NC(=O)[C@H](CCCCN)NC(=O)CNC(=O)[C@H](Cc3ccccc3)NC(=O)[C@H](CCCNC(=N)N)NC(=O)[C@H](CCSC)NC(=O)CNC(=O)[C@H](C)NC(=O)[C@H](CCCCN)NC(=O)[C@H](CCCCN)NC(=O)[C@@H]3CSSC[C@@H](C(=O)N[C@@H](C)C(=O)N4CCC[C@H]4C(=O)N[C@@H](CCCCN)C(=O)O)NC(=O)[C@H](Cc4c[nH]cn4)NC(=O)[C@H](CSSC[C@H](NC(=O)[C@H](CCC(N)=O)NC(=O)[C@H](CCCNC(=N)N)NC(=O)[C@H](CO)NC1=O)C(=O)N[C@@H](CC(C)C)C(=O)N[C@@H](CCC(=O)O)C(=O)N1CCC[C@H]1C(=O)N3)NC(=O)[C@H](CCCCN)NC(=O)CNC(=O)[C@H](CC(N)=O)NC(=O)[C@H](CCSC)NC2=O [T36A] (H-GVIINVKCKISRQCLEPCKKAGMRFGKCMNGKCHCAPK-OH; disulfide 8-28, 14-33, 18-35)			0.724 nM	0.728 nM	
